Assay results: the supplement of paper PMC12645437, “Orthogonal IMiD-Degron Pairs Induce Selective Protein Degradation in Cells” (ACS Chemical Biology, 2025)
Some of the results follow.

Molecular target: no compound (DMSO)
Assay: log2 fold change of degron read counts, EGFP-low vs EGFP+ sorted cells; higher = lower degron-EGFP level without compound (poor expression or instability)
Details: compound: DMSO control; 18 h
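Also: jurkat cells carrying a lentiviral library of mutant zinc finger degrons fused to EGFP plus mCherry, mCherry+ cells FACS sorted, degron abundance counted by next-generation sequencing.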

Row | Sequence | log2 fold change of degron read counts
1 | FFCEQCGATFTQKGNLLRHIKL | -1.01
2 | FGCEQCGASFTQKGNLLRHIKL | -1.03
3 | FHCEICGHEFTQKGNLLRHIKL | -1.54
4 | FYCEQCGAEFTQKGNLLRHIKL | -2.85
5 | FVCNQCGARFTQKGNLLRHIKL | -0.184
6 | FECDICGAMFTQKGNLLRHIKL | -1.68
7 | FVCNICGAQFTQKGNLLRHIKL | -1.16
8 | LMCEICGFTCTQKGNLLRHIKL | -0.569
9 | FDCNICGAFFTQKGNLLRHIKL | 0.794
10 | FVCPICGRKFTQKGNLLRHIKL | -0.559
11 | FLCEICGHAFTQKGNLLRHIKL | -1.94
12 | FRCNICGAWFTQKGNLLRHIKL | 0.201
13 | FYCNVCGAIFTQKGNLLRHIKL | 0.66
14 | FCCEVCGAYFTQKGNLLRHIKL | -0.528
